# From PMC4336329 (PLoS ONE, 2015)
# Hit rate of the full screen: of about 310,000 compounds, about 14,000 (4.5%) showed an effect of 50% or more. Effects have a minus sign here. Some of the results follow. Where a SMILES comes first, the peptide text is derived from it. The star is where a group is joined. Boc = CC(C)(C)OC(=O)*; Bn = c1ccc(C*)cc1; NHNH2 = NN*
# Molecular target: human ether-à-go-go-related gene (hERG) potassium channel (human, UniProt Q12809)
# Experiment: primary screen, population patch clamp on CHO cells stably expressing hERG
# 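Further: peak tail current of the secondary pulse compared with the same well before compound.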
# Chain of human ether-à-go-go-related gene (hERG) potassium channel (Q12809 whole entry, looked up): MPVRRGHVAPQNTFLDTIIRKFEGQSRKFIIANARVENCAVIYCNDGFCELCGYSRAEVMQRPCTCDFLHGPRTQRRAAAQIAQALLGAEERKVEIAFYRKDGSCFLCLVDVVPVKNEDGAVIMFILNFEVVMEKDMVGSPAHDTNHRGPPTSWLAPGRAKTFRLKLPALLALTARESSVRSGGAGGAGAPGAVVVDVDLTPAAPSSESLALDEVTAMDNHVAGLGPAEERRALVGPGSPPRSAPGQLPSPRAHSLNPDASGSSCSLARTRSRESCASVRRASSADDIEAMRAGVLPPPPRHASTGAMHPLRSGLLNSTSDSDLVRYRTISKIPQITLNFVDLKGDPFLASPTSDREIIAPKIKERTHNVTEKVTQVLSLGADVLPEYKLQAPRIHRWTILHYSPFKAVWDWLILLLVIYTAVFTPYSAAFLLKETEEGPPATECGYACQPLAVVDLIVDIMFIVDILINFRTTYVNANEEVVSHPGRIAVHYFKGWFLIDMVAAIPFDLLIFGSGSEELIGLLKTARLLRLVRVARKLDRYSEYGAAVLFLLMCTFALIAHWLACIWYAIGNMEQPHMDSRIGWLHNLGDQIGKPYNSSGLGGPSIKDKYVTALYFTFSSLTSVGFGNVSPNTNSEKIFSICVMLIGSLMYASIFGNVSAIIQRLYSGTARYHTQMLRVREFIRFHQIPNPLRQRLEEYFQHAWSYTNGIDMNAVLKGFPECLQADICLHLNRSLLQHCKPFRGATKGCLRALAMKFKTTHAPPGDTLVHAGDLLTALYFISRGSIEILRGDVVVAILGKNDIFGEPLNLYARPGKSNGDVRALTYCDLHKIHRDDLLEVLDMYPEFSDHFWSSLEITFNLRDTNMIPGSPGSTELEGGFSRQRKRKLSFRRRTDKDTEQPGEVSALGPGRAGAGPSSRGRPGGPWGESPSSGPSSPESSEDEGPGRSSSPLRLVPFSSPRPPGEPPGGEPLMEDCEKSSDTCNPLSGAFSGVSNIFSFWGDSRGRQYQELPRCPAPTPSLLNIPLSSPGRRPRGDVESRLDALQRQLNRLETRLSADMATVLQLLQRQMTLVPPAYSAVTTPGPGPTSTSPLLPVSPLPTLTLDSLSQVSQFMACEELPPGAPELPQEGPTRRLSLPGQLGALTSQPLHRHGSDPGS
row,Structure (SMILES),"hERG current change (%, negative = inhibition) at 10uM [%]"
1,Cc1ccc(N2C(=O)c3ccccc3C2Nc2cccnc2)nc1 (stereo not drawn),-12.3
2,CC(OC(=O)c1ccc(Cl)c(S(=O)(=O)N2CCOCC2)c1)C(=O)Nc1ccc(S(N)(=O)=O)cc1 (stereo not drawn),19.5
3,C=CCn1c(O)c(C(CC)=NCCc2ccccc2)c(=O)[nH]c1=O,-28.1
4,CC(C)CC(NC(=O)C(COCc1ccccc1)NC(=O)OC(C)(C)C)C(=O)NN (stereo not drawn) (Boc-Ser(Bn)-Leu-NHNH2; configuration not given here),23.1
5,N#CCC(=O)Nc1ccc(C(=O)NCc2cccc(Cl)c2)cc1,8.88
6,O=C(CSc1nc2ccc([N+](=O)[O-])cc2[nH]1)c1ccc2ccccc2c1,4.45
7,CCNC(=S)N/N=C/c1cc(Br)cc(Br)c1OC,-6.01
8,NNc1nc2c(-c3ccc(F)cc3)nnn2c2ccccc12,9.92
9,CC1(C)CCCC(C)(C)N1CC(O)COCCOc1ccc(Br)cc1.Cl (stereo not drawn),-67.5
10,O=C(O)/C=C/c1cn(Cc2ccccc2Cl)nc1-c1ccccc1,20.5
11,COc1cccc(NC(=O)CCC(=O)Nc2ccc3nc(N4CCOCC4)cc(C)c3c2)c1,23.4
12,O=C(NCc1ccco1)c1noc2c1CCCC2,-3.59
13,COc1ccc(NC(=O)COC(=O)c2ccc([N+](=O)[O-])o2)cc1Cl,24.1
14,CC(=O)Nc1ccc(-c2cc(-c3ccc(NC(C)=O)cc3)nc(-c3ccc(NC(C)=O)cc3)n2)cc1,2.91
15,Cn1c(SCc2nnc(-c3ccccc3)o2)nc2ccccc21,-18.7
16,Cc1cccc(N2CCN(Cc3ccc([N+](=O)[O-])o3)CC2)c1C,0.379
17,O=c1nc(-c2ccccc2)cc(-c2ccccc2)[nH]1,-2.06
18,COC(=O)C1=C(c2ccc(OC(F)(F)F)cc2)C[C@@H]2CC[C@H]1N2C(=O)NCCCOC(C)C,-29.9
19,O=C(O)C(Oc1ccc2cc(-c3ccc(Cl)cc3)c(=O)oc2c1)c1ccccc1 (stereo not drawn),26.4
20,Cn1ncc(Cl)c1C(=O)Nc1nc2ccc(Cl)cc2s1,-0.803
21,COc1cc(C(=O)OCC(=O)c2cc(C)n(CC3CCCO3)c2C)cc(OC)c1C (stereo not drawn),-68
22,Cc1cc(N(C)C)ccc1N=Nc1ccc2ncccc2c1,9.49
23,Cc1ccc(C)c(N2CCN(C(=S)Nc3ccc4nc(N5CCOCC5)cc(C)c4c3)CC2)c1,-38.7
24,COCCCn1c(=NC(=O)c2ccccc2)c(C#N)cc2c(=O)n3cccc(C)c3nc21,-71.5
25,COC(=O)Nc1ncc(CN2CCC(c3ccccc3)CC2)s1,-29.7
26,COCCNC(=S)N1C2CCC1CC(NC(=O)NC13CC4CC(CC(C4)C1)C3)C2 (stereo not drawn),-1.35
27,CC(=O)c1ccc(S(=O)(=O)N(CCCO)Cc2cc3cc4c(cc3[nH]c2=O)OCCO4)cc1,13.3

row,Structure (SMILES),"hERG current change (%, negative = inhibition) at 10uM [%]"
1,O=C(NNC(=O)c1sccc1-n1cccc1)Nc1ccc(F)cc1,8.73
2,CCCCN(C)CCC(=O)Nc1ccc2c(c1)CCC2.Cl,-7.46
3,CCCc1c(O)nc(SCC(=O)NCc2ccco2)[nH]c1=O,27
4,CCNC(=S)NNC(=O)Cn1nc(C)cc1C,-0.819
5,O=C1CN(c2ccccc2)C(=S)N1c1ccccc1.[Na+],4.68
6,COc1ccc2ccccc2c1C1CC(=O)N2CN(C3CCCCC3)CSC2=C1C#N (stereo not drawn),7.95
7,CC(Sc1nnc(-c2ccc(C(C)(C)C)cc2)n1C)C(N)=O (stereo not drawn),-0.259
8,Cc1ccccc1C(=O)NC(=S)N(CCO)Cc1ccccc1,11.1
9,O=C(/C=C/c1cccs1)N1CCC2(CC1)Oc1ccc(Cl)cc1C(=O)C21CC(c2ccc(Cl)cc2)=NO1 (stereo not drawn),12.2
10,NNC(=O)c1cc(C2CC2)nc2ccc(Br)cc12,13.3
11,COc1cc(-c2nc3n(n2)C(c2ccncc2)C2=C(CCCC2=O)N3)cc(OC)c1OC (stereo not drawn),45.3
12,CCNC(=O)NC(=O)C(C)OC(=O)CNS(=O)(=O)c1c(Cl)cc(Br)cc1Cl (stereo not drawn),6.39
13,Cc1ccc(-c2nn(-c3ccc(F)cc3)cc2C(=O)NCC(c2cccs2)N2CCOCC2)cc1 (stereo not drawn),-30.5
14,Cc1ccccc1NS(=O)(=O)c1ccc(C(=O)NCCCN2CCCC2=O)cc1,1.22
15,c1ccc(-c2cnnc(N3CCCCC3)n2)cc1,-25.4
16,COCC(C)NCc1cc(Br)ccc1OC.O=C(O)C(=O)O (stereo not drawn),8.73
17,C#Cc1ccc(CN2CCC(C(=O)Nc3ccc(Oc4ccccc4)nc3)CC2)cc1,-72.3
18,COC(=O)C1=C(c2ccc(S(C)(=O)=O)cc2)C[C@@H]2CC[C@H]1N2C(=O)NCc1cccc2ccccc12,-61.6
19,CCC(C)(C)NC(=O)c1ccc(Br)o1,3.34
20,COc1cc(NS(=O)(=O)c2ccc(NC(=S)NC(=O)c3sc4ccccc4c3Cl)cc2)ncn1,16.3
21,COc1ccc2no[n+]([O-])c2c1,28.1
22,CCOCCCNC(=S)N1CCCN(c2nc3cc(C)cc(C)c3cc2C#N)CC1,-55.6
23,O=c1c(Cl)c(NS(=O)(=O)c2ccccc2)cnn1-c1ccccc1,12.2
24,COc1ccc(CCN(C)C(=O)c2ccc(S(=O)(=O)NCc3ccco3)cc2)cc1OC,-4.8
25,CCc1ccc(C(=O)COC(=O)C(CCSC)NC(=O)c2ccccc2)cc1 (stereo not drawn),5.66
26,Cc1[nH]c2ccc(Br)cc2c(=O)c1CN1CCCCCC1,-64.3
27,[Cl-].[NH3+]CCCn1c(C(=O)c2ccc(Cl)cc2)c2ccc([N+](=O)[O-])cc2[n+]1[O-],-63.8
